Data as given in PubChem BioAssay AID1963576 (National Center for Advancing Translational Sciences (NCATS), 2024).
In all, about 46,000 compounds went through this assay and about 60 (0.1%) were called active. Roughly 3% stayed inconclusive and do not appear here. The call rests on the fitted dose curve; in most records, active means well fitted inhibition curve with a large enough effect; inconclusive means small, poorly fitted or top-dose-only effect; inactive means no such curve, though single readings can be large or run the other way. The list shows a part of the results.

Test: Primary qHTS assay for Inhibitors of ovarian cancer metastasis using an organotypic tumor microenvironment (TME) model. Further: nearly all actives have a fitted effect of over 65% in size.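 On activity change, negative = inhibition: plate controls were DMSO wells for no effect and tomatine positive control wells for full effect.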
Details: SKOV3ip1-GFP adhesion/invasion on 3D omental model, fluorescence; series mostly up to 45.8 µM; activity change, negative = inhibition: at the top concentration
How it was run: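 Primary human omental fibroblast/mesothelial 3D culture pre-formed 48 h. SKOV3ip1-GFP cells added with compounds (0.36-46 umol/L), incubated 2 h RT/16 h 37 C, fixed; GFP cells quantified at 488/509 nm.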

outcome, inactive:
Cc1ccc(S(=O)(=O)NC2(C(F)(F)F)NC(=O)N(c3ccc(F)cc3)C2=O)cc1 (configuration not stated)
CC1CCN(S(=O)(=O)c2ccc3c(c2)CCN3C(=O)Nc2cccc(Br)c2)CC1
CCOC(=O)c1c(C)[nH]c(C)c1S(=O)(=O)N1CCCC(C(=O)Nc2ncccc2C)C1 (configuration not stated)
O=C(Nc1nc2c(F)cccc2s1)c1ccc(S(=O)(=O)N2CCOCC2)cc1
CCN(CC)C(=O)Cn1c(=O)n(-c2ccc(Cl)cc2)c(=O)c2c3c(sc21)CCCCC3
CCOc1ccc(CCNC(=O)CCn2c(=O)c3cccn3c3ccc(F)cc32)cc1OCC
COc1ccc(NC(=O)CC2C(=O)N(c3ccc(OC)cc3)C(=O)N2Cc2ccc(OC)c(OC)c2)cc1 (configuration not stated)
Cc1ccc(C)c(CSc2cn(CC(=O)N3CCCC3)c3ccccc23)c1
COc1cc(NC(=O)CSc2cc(=O)n(C)c3ccccc23)cc(OC)c1OC
Cc1c(C(=O)N(C)Cc2ccccc2)sc2nc(-c3ccc(F)cc3)cn12
CSc1nn(CC(=O)Nc2ccc(C)cc2C)c(N)c1S(=O)(=O)c1ccc(Cl)cc1
CCn1cc(C(=O)N(C)c2cc(C)ccc2C)c2cc(OC)c(OC)cc2c1=O
COc1ccc(NS(=O)(=O)c2ccc3c(c2)CC(C)N3C(=O)C2CCC2)cc1OC (configuration not stated)
COc1cc2c(C(=O)N3CCN(c4ccc(F)cc4)CC3)cn(CC(C)C)c(=O)c2cc1OC
COc1ccc(CCNC(=O)CCc2c(C)nc3cc(-c4ccc(Cl)cc4)nn3c2C)c(OC)c1
Cc1cc(C)cc(N2C(=O)CSC23C(=O)N(CC(=O)NC2CCCCC2)c2ccccc23)c1 (configuration not stated)
CNC(=O)C1CCN(C(=O)N2CC(C)Oc3ccc(Cl)cc32)CC1 (configuration not stated)
COc1ccc(OC)c(CCNC(=O)c2cnn(-c3ccccc3)c2-n2cccc2)c1
O=C(c1ccc2c(c1)N(Cc1cccc(Cl)c1)C(=O)c1ccccc1S2(=O)=O)N1CCCC1
CCOC(=O)C1CCCN(C(=O)c2ccccc2NC(=O)c2nsc3ccccc23)C1 (configuration not stated)
CCOC(=O)C1CCCN(C(=O)c2ccc3c(c2)N(Cc2ccc(Cl)cc2)C(=O)c2ccccc2S3=O)C1 (configuration not stated)
Cc1noc(/C=C/c2ccccc2F)c1S(=O)(=O)N1CCC(C(=O)Nc2ccc(C#N)cc2)CC1
CCOc1ccc(CNC(=O)CCn2c(=O)c3cccn3c3ccc(F)cc32)cc1
CCOC(=O)c1ccc(NC(=O)c2ccc(CN3C(=O)CCn4nc(C)cc43)cc2)cc1
O=C(Nc1cccc(C(F)(F)F)c1)Nc1cccs1

Activity change, negative = inhibition, inactive:
Cc1ccc(-c2nc3n(n2)C(c2ccccc2Cl)C=C(c2ccc(Cl)cc2)N3)cc1 (configuration not stated) 0.459%
C=C[C@@H]1CN2CCC1C[C@@H]2C(O)c1ccnc2ccc(OC)cc12 (some centres not stated) -7.9%
COC(=O)c1sccc1S(=O)(=O)N(CC(=O)NCc1ccc(C)cc1)c1ccccc1 0.314%
N#Cc1c[nH]n2c(NC3CCCC3)c(-c3cccc(Br)c3)nc12 0.533%
CCS(=O)(=O)N1CC(=O)N(c2cccc(Cl)c2)C(C)(C(=O)NC2CCCCCC2)C1 (configuration not stated) -1.73%
CC(C)CCn1c(=O)c2cccnc2n(CC(=O)Nc2ccccc2)c1=O -0.432%
Cc1oc(-c2ccc(C(=O)NCCC(C)C)cc2)nc1CS(=O)(=O)c1ccccc1 -7.97%
CCCC(=O)N1CCc2cc(OC)c(OC)cc2C1COc1ccccc1OC (configuration not stated) 4.42%
Cc1ccn2c(NC(=O)c3cccc(Cl)c3)c(-c3ccccc3)nc2c1 48%
CCOCCCn1c(=N)c(C(=O)NC(C)c2ccccc2)cc2c(=O)n3cc(C)ccc3nc21 (configuration not stated) -0.707%
Cc1cccc(C)c1NC(=O)Cn1c(=O)n(Cc2ccc(C(=O)NCc3ccco3)cc2)c(=O)c2sccc21 -23.3%
CCOC(=O)Cc1cc(C(=O)Nc2ccc(Br)cc2)sc1-c1ccc(C)cc1 -11%
Cc1cccc(N2CCN(C(=O)c3ccc4nc(N5CCC(C)CC5)sc4c3)CC2)c1C 1.64%
Cc1ccc2c(Sc3ccc(Cl)cc3)c(C(=O)NCCC(C)C)[nH]c2c1 4.38%
Cc1c(C(=O)N(Cc2ccc(N(C)C)cc2)CC2CCCO2)oc2ccccc12 (configuration not stated) -1.1%
Cc1cc(C)cc(OCC(=O)Nc2nonc2-c2ccc(Br)cc2)c1 -2.15%
Cc1nc2sc(C)c(C)n2c(=O)c1S(=O)(=O)N1CCN(c2ccccc2F)CC1 0.563%
COc1ccc(CN(C(=O)c2ccccc2F)C2CCS(=O)(=O)C2)cc1 (configuration not stated) -1.11%
Cc1ccc(NC(=O)CN2C(=O)c3cccnc3Sc3ccccc32)cc1C -3.89%
COc1ccc2[nH]cc(CCNC(=O)Nc3ccccc3)c2c1 -20.8%
CCc1nnc(SCc2nc(-c3ccccc3Cl)oc2C)c2cc3sc(C)cc3n12 -6.57%
COc1cc(O)c2c(c1)C1OC1C[C@H](O)[C@H](O)C(=O)C=CC[C@H](C)OC2=O (some centres not stated) -27.3%
CCCSc1ncc(Cl)c(C(=O)Nc2ccc(S(=O)(=O)N3CCCC(C)C3)cc2)n1 (configuration not stated) -1.69%
CCCN(Cc1cccs1)C(=O)Nc1cc(C)cc(C)c1 -7.1%
Cc1nn(C)c2c1c(-c1ccccc1)cc(=O)n2Cc1ccc(F)cc1Cl 4.3%
CCOc1ccc(N2CC(NC(=O)Cc3cccs3)CC2=O)cc1 (configuration not stated) -5.64%
COc1ccc(-c2nc3ccccc3o2)cc1NC(=O)c1cccc2c(Cl)cccc12 -5.15%
COc1ccc2cc(-c3nc(-c4ccc(N(C)C)cc4)no3)c(=O)oc2c1 -7.66%
CN(Cc1ccccc1)c1ccc2cc(S(=O)(=O)N3CCCCC3)ccc2n1 0.323%
CCOc1ccc(NC(=O)CCc2c(C)nc3c4c(C)cc(C)nc4nn3c2C)cc1 -2.73%
CC(NCc1ccc2c(c1)n(C)c(=O)n2C)c1ccccc1 (configuration not stated) 0.243%
NC(=O)c1ccc(I)c([N+](=O)[O-])c1 -6.91%
c1ccc(-c2oc3ncnc(NC[C@@H]4CCCO4)c3c2-c2ccccc2)cc1 -0.781%
COc1cccc(-c2cc(C(=O)NCc3ccccc3)no2)c1 1.88%
COc1ccc(N2CCN(C(=O)c3ccc4c(c3)CCN4S(=O)(=O)c3ccccc3)CC2)cc1 -7.7%
Cc1noc2ncnc(NCCc3ccccc3)c12 8.47%
CCC12CN3CC(CC)(CN(C1)C3c1c[nH]c3ccccc13)C2=O (configuration not stated) -4.07%
Cc1cc(C)n2nc(CNC(=O)c3cccc(N(C)C)c3)nc2n1 -2.73%
Cc1ccc(-c2cn3c(n2)sc2cc(C(=O)NC4CCCCCC4)ccc23)cc1 15.6%
COCCCNC(=O)C1CCN(Cc2cc3ccccc3n2Cc2cccc(Cl)c2)CC1 -0.148%
COc1ccc(Br)cc1CNC(=O)C1CCN(c2nnc(-n3cccc3CNc3ccc(C)cc3)s2)CC1 4.24%
Cc1ccc(NS(=O)(=O)c2ccc3nc(-c4ccccc4)[nH]c3c2)cc1Cl -8%
CCOc1ccccc1NC(=O)C1CCCN(S(=O)(=O)c2cccs2)C1 (configuration not stated) 0.923%
COc1ccc(NC(=O)c2sc3nc4n(c(=O)c3c2C)CCC4)c(OC)c1 -6.63%
CCCCOc1ccccc1NC(=O)CC1Sc2ccccc2NC1=O (configuration not stated) -9.2%
COc1ccccc1Cc1nc2ccccc2nc1SCC(=O)N1CCCCC1 2.8%
Cc1noc(/C=C/c2ccccc2F)c1S(=O)(=O)N1CCC(C(=O)NCc2ccco2)CC1 -6.51%
CCOC(=O)N1CCN(c2ncc3c(n2)CC(c2ccc(OC)c(OC)c2)CC3=O)CC1 (configuration not stated) 8.3%
CCOC(=O)c1ccccc1NC(=O)N1CCCn2nc(C)cc21 1.06%
Cc1ccccc1C(=O)Nc1nnc(S(=O)(=O)N2CCc3ccccc32)s1 -2.54%
CC(=O)N1CCCc2cc(S(=O)(=O)N3CCC(C(=O)N(C)C4CCCCC4)CC3)ccc21 4.87%
CCc1ccc(NC(=O)Cn2c(=O)n(Cc3ccc(C)cc3)c(=O)c3cccnc32)cc1 1.16%
O=C(CCS(=O)(=O)c1cc(Br)cc2c1N(C(=O)C1CC1)CC2)N1CCN(c2ccccc2)CC1 -28.4%
Cc1ccccc1Cn1nnc2c(=O)[nH]c(C3CCCN(C(=O)c4ccc(C(C)(C)C)cc4)C3)nc21 (configuration not stated) -6.74%
Cc1nnc2c3ccccc3nc(N3CCN(c4ccccc4)CC3)n12 0.896%
CCOc1ccc(C2CC(=O)c3c([nH]c(C(=O)OCCOc4ccccc4)c3C)C2)cc1 (configuration not stated) -11.5%
O=C(CCc1ccccc1)N(Cc1cccnc1)c1nc2ccc(F)cc2s1 -7.35%
CCOCCCNC(=O)C1CCCN(c2ncnc3onc(C)c23)C1 (configuration not stated) -1.7%
N#Cc1c(-c2ccccc2)cc(-c2ccccc2)nc1SCC(O)CS(=O)(=O)Cc1ccccc1 (configuration not stated) 0.94%
O=C(Cn1cc(SCc2ccc(F)cc2)c2ccccc21)N1CCCCCC1 -8.26%
CCOc1ccc(NC(=O)c2cnn(-c3ccccc3)c2-n2cccc2)cc1 5.78%
CCN(CC)C(=O)CSc1nc2c(c(=O)n(C)c(=O)n2C)n1Cc1ccccc1 2.87%
Cc1ccc2c(CNC3CCCC3)c(C(=O)O)n(Cc3ccc(F)cc3)c2c1 7.2%
CN(C(=O)CSc1nc2ccccc2n1CC(=O)N(C)C1CCCCC1)c1ccccc1 6.05%
CCCCNC(=O)CCn1c(=O)c2ccccc2n(Cc2cccc(Cl)c2)c1=O 7.08%
Cc1cccc(NC(=O)CN2C(=O)CCn3nc(-c4cccn4C)cc32)c1C -2.69%
COc1ccc(NC(=O)C2CCN(S(=O)(=O)c3cc(-c4noc(C)n4)ccc3C)CC2)cc1 2.49%
Cc1ccc(C)c(NC(=O)c2cc(S(=O)(=O)NCCc3ccccc3)ccc2F)c1 1.02%
O=C(O)c1ccc(O)c2ncc(N3CCOCC3)cc12 4.35%
CCCCN(CC)C(=O)C1CCCN(c2ncnc3c2nc2n3CCCCC2)C1 (configuration not stated) 7.26%
O=C(CSc1nnc2scc(-c3ccccc3)n12)Nc1ccc(Cl)cc1 -2.43%
Cc1ccccc1C(=O)N1CCC(N2CCN(Cc3ccc(F)cc3)C(=O)C2=O)CC1 5.16%
